Laboratory results published in patent US20180148503A1 (Memorial Sloan Kettering, published 2018).

Experiments:
[1] = target: T1, 009-AAAA (…) / HLA-A*0201 complex on T2 cells (human); test: phage FACS on peptide-loaded T2 cells
T1 construct: Control peptide with alanines at positions 4-7; also called EXT009-AAAA; 009-AAAA (position 4-7)

[2] = target: T2, PRA300-309 (…) / HLA-A*0201 complex (human); test: phage FACS on peptide-loaded T2 cells
T2 construct: also called PRAME300; PRAME P300

[3] = target: T3, 009-mut2 (…) / HLA-A*0201 complex on T2 cells (human); test: phage FACS on peptide-loaded T2 cells
T3 construct: also called EXT009-mut2

[4] = target: T4, 009-mut3 (…) / HLA-A*0201 complex on T2 cells (human); test: phage FACS on peptide-loaded T2 cells
T4 construct: also called EXT009-mut3; Pr302A

[5] = target: T5, 009-mut4 (…) / HLA-A*0201 complex on T2 cells (human); test: phage FACS on peptide-loaded T2 cells
T5 construct: also called EXT009-mut4

[6] = target: T6, 009-mut5 (…) / HLA-A*0201 complex on T2 cells (human); test: phage FACS on peptide-loaded T2 cells
T6 construct: also called EXT009-mut5

[7] = target: T7, 009-mut6 (…) / HLA-A*0201 complex on T2 cells (human); test: phage FACS on peptide-loaded T2 cells
T7 construct: also called EXT009-mut6

[8] = target: T8, 009-mut7 (…) / HLA-A*0201 complex on T2 cells (human); test: phage FACS on peptide-loaded T2 cells
T8 construct: also called EXT009-mut7; Pr306A

[9] = target: T9, 009-mut8 (…) / HLA-A*0201 complex on T2 cells (human); test: phage FACS on peptide-loaded T2 cells
T9 construct: also called EXT009-mut8

[10] = target: T10, 009-mut9 (…) / HLA-A*0201 complex on T2 cells (human); test: phage FACS on peptide-loaded T2 cells
T10 construct: also called EXT009-mut9

[11] = target: T11, 009-mut10 (…) / HLA-A*0201 complex on T2 cells (human); test: phage FACS on peptide-loaded T2 cells
T11 construct: Alanine variant at peptide position 10

[12] = target: T1, 009-AAAA (…) / HLA-A*0201 complex on T2 …; test: phage FACS on peptide-loaded T2 cells; remark: listed apart in the source
[13] = target: T12, HLA-A*0201 on T2 cells without added peptide (human); test: phage FACS on T2 cells without peptide
T12 construct: Background target (T2 cells with no peptide pulsed); also used as the HLA-A*02 partner of the peptide in the stabilisation read-out; also called T2 cells alone; unpulsed T2 cells

B1: EXT009-29 phage (scFv phage clone) (scFv)
scFv: [letters of about 100 residues omitted]SRGGGGSGGGGSGGGGSLEMAQVQLVQSGAEVKKPGASVKVSCKASGYTFSSYGISWVRQAPGQGLEWMGWISPYNGNTNYAQNLQGRVTMTTDTSTTTAYMELRSLTSDDTAVYYCARYSGYYYVDYWGQGTLVTVSS
For B1, the binding result [1] was “no binding”, the MFI [2] was 20100 and the MFI [3] was 90.6. The MFI [4] was 207, the MFI [5] was 954 and the MFI [6] was 15200. The MFI [7] was 45700, the MFI [8] was 25600 and the MFI [9] was 124. For the same binder, the MFI [10] was 192, the MFI [11] was 720 and the MFI [12] was 111. For the same binder, the MFI [13] was 89.7.
